Values belong to the binder of their own block, whether it stands above or below them.
Target: human ILT4 haplotype 5 expressed on mouse 3A9 T cells (human), Q8N423
Test: cell-based or functional assay

Sequence of human ILT4 haplotype 5 expressed on mouse 3A9 T cells (human), Q8N423 (Q8N423 other isoform, or with tags, fused parts or gaps): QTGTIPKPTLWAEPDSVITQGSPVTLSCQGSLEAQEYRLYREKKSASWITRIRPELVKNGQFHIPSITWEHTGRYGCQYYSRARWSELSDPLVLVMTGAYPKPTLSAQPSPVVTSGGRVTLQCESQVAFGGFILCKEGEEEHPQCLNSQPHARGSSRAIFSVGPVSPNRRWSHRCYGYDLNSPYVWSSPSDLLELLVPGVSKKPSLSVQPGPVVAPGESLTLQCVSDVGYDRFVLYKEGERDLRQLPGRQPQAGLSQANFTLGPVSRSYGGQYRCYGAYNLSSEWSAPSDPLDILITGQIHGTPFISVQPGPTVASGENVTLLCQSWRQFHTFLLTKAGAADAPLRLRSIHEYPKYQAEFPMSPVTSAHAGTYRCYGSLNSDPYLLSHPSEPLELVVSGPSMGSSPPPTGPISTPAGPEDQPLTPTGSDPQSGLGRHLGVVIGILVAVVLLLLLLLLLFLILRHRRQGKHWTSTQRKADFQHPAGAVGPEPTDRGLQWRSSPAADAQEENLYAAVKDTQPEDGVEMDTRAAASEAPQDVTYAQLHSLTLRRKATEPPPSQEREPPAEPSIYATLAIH

EC50 (IL-2 Repression Assay: rescue of IL-2 release from anti-CD3 stimulated ILT4 3A9 T cell transfectants, ELISA): 0.24 µg/mL
B1: 2C1 (antibody)
heavy: EVQLVQSGAEVKKPGASVKVSCKVSGYTLTELSMHWVRQAPGKGLEWMGGFDPEDGETIYAQKFQGRVTMTEDTSTDTAYMELSSLRSEDTAVYYCARAGPLYTIFGVVIIPDNWFDPWGQGTLVTVSSASTKGPSVFPLAPCSRSTSESTAALGCLVKDYFPEPVTVSWNSGALTSGVHTFPAVLQSSGLYSLSSVVTVPSSSLGTKTYTCNVDHKPSNTKVDKRV[human IgG4 Fc with S228P (EU numbers) not spelt out]
light: ESVLTQPPSVSGAPGQRVTISCTGSSSNIGAGYDVHWYQQLPGTAPKLLIYGNSNRPSGVPDRFSGSKSGTSASLAITGLQAEDEADYYCQSYDSSLSGSGVVFGGGTQLIILGQPKAAPSVTLFPPSSEELQANKATLVCLISDFYPGAVTVAWKADSSPVKAGVETTTPSKQSNNKYAASSYLSLTPEQWKSHRSYSCQVTHEGSTVEKTVAPTECS

EC50 (IL-2 Repression Assay: rescue of IL-2 release from anti-CD3 stimulated ILT4 3A9 T cell transfectants, ELISA): 1.2 µg/mL
B2: 2A6 (antibody)
heavy: EVQLVQSGAEVKKPGSSVKVSCKASGGTFSSYAISWVRQAPGQGLEWMGGIIPIFGTANYAQKFQGRVTITADESTSTAYMELSSLRSEDTAVYYCARYFDSSGWYKGGAFDIWGQGTMVTVSSASTKGPSVFPLAPCSRSTSESTAALGCLVKDYFPEPVTVSWNSGALTSGVHTFPAVLQSSGLYSLSSVVTVPSSSLGTKTYTCNVDHKPSNTKVDKRV[human IgG4 Fc with S228P (EU numbers) not spelt out]
light: QSVLTQPSSLSASPGASASLTCTLRSGINVDTYRIHWYQQKPGSPPQYLLRYKSDSDKHQGSGVPSRFSGSKDPSANAGILLISGLQSEDEADYYCAIWYSSTWVFGGGTQLTVLGQPKAAPSVTLFPPSSEELQANKATLVCLISDFYPGAVTVAWKADSSPVKAGVETTTPSKQSNNKYAASSYLSLTPEQWKSHRSYSCQVTHEGSTVEKTVAPTECS

Source: patent publication US20220002403A1
